The results in this text go back to PubChem BioAssay AID1347073 (National Center for Advancing Translational Sciences (NCATS), 2019).

The campaign covered roughly 45,000 compounds. About 200 (0.44%) were called active. About 7% were inconclusive and are not listed. Calls follow the shape of the dose curve; as a rule, active = well fitted activation curve with a large enough effect; inconclusive = small, poorly fitted or top-dose-only effect; inactive = no such curve, though single readings can be large or run the other way. The list shows a part of the results.

This assay can be described thus: qHTS of TDP-43 Inhibitors: NCGC Sytravon Library Screen. Also: 0% is about no effect; nearly all actives have a fitted effect of over 55% in size. The conditions noted are these: yeast TDP-43 toxicity rescue, BacTiter-Glo growth, 24 h; series mostly up to 46.1 µM; growth rescue (activation): at the top concentration. The gist of the method:
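TDP-43-expressing yeast, pregrown in raffinose, seeded at OD600 0.02 in galactose medium with compound for 24 hr at 30 deg C. Growth read by BacTiter-Glo luminescence, so rescue of toxicity appears as activation.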
For orientation: Quantitative high-throughput screening tests each substance at several concentrations.
Take `Cc1cc(/C=N/O)c(C)n1-c1ccccc1`: the “growth rescue (activation)” value was inactive: 10.8%.

Regarding `O=C(CCn1c(=O)oc2ccccc21)N1CCN(C(c2ccccc2)c2ccccc2)CC1`, the “growth rescue (activation)” value was inactive: 25.1%. With `CC(C)CC(N)c1csc(NC(=O)Nc2ccccc2-c2ccccc2)n1` (centres undefined), the “growth rescue (activation)” value is inactive: 14.5%. With `Cc1ccc(C)c(NC(=O)C2CC(=O)N(C3CCCCC3)C2)c1` (centres undefined), the “growth rescue (activation)” value is inactive: 6.16%.

With `O=C(Nc1ccc(Oc2ccccc2)cc1)c1ccc2nc([C@@H]3O[C@H](CO)[C@H](O)[C@H](O)[C@H]3O)[nH]c2c1`, the “growth rescue (activation)” value was inactive: 9.04%. For `CC(SCC(=O)O)c1nc2ccccc2[nH]1` (centres undefined), the “growth rescue (activation)” value was inactive: -2.2%.

Consider `C1CCN(Cc2nnnn2CC2CCCO2)CC1` (centres undefined), for which the “growth rescue (activation)” value was inactive: 13.7%. As for `CC1(C)CC(=O)C=C(Nc2cccc(F)c2)C1`, the figure is inactive: -1.1%; as for `Cc1ccc(NC(=O)CN(Cc2ccco2)Cc2ccccc2O)cc1C`, inactive: -11.8%. Next, `CC1CCc2c(nc3sc4c(c3c2N)CCCC4)C1` (centres undefined): inactive: 9.14%; `COc1cccc(NC(=O)Nc2nnc([C@@H]3C[C@H](O)[C@@H](CO)O3)s2)c1`: inactive: 7.95%.

For `Cn1c(SCC(=O)C(C)(C)C)nnc1-c1ccc(F)cc1`, the “growth rescue (activation)” value is inactive: -15.3%. Take `COc1ccc(NC(=S)N2CCCN(Cc3cc(C)ccc3C)C2)cc1`: the “growth rescue (activation)” value was inactive: 3.43%. Next, `COc1ccc2nc(SCC(=O)Nc3cc(C)on3)c(C#N)cc2c1`: inactive: -7.46%. For the compound `O=C(Nc1cccc(O)c1)c1ccc(NC(=O)C2CCCO2)cc1` (centres undefined), the “growth rescue (activation)” value was inactive: -30.4%. Next, `Cc1cccc(N(C(=O)c2csnn2)C(C(=O)NC(C)(C)C)c2cccnc2)c1` (centres undefined): inactive: 1.96%; `CCCn1c(SCC(=O)Nc2ccccc2Cl)nc(O)cc1=O`: inactive: -19.4%; `O=C(NC1CCCCC1)c1cc(-c2ccc(Cl)cc2)on1`: inactive: 9.25%. Consider `CN(Cc1cc2ccccc2[nH]c1=O)C(=O)c1cccs1`, for which the “growth rescue (activation)” value was inactive: -0.957%. Next, `Cc1cc(C)cc(NC(=O)CSc2nncn2-c2ccccn2)c1`: inactive: -8.72%. On to `COc1ccccc1CC(NC(C)=O)C(=O)NC1CCN(S(=O)(=O)c2ccc(NC(C)=O)cc2)CC1` (centres undefined), for which the “growth rescue (activation)” value was inactive: 7.31%. As to `Cc1ccccc1Cn1c(C)c(C(=O)NCC(C)C)sc1=O`, the “growth rescue (activation)” value is inactive: 13.7%. Next, `COc1ccc(S(=O)(=O)N2CN(CCc3ccc(OC)c(OC)c3)c3nc4ccccc4nc32)cc1`: inactive: 7.29%; `COc1ccc(-c2csc(N(CCCN(C)C)C(=O)c3ccc(C)cc3)n2)cc1`: inactive: -0.0496%; `CC1(C(=O)NS(=O)(=O)c2ccccc2Cl)CCN1C(=O)C1CC1` (centres undefined): inactive: 10.2%.

As for `O=C(Cn1ncc(Cl)c(Cl)c1=O)N1CCOCC1`, the “growth rescue (activation)” value is inactive: 7.65%.

Take `O/N=C1/CCSc2ccccc21`: the “growth rescue (activation)” value is inactive: 22.8%.

`Cc1ccc(OCCOCCOc2cccc3cccnc23)c(Br)c1`: the “growth rescue (activation)” value is inactive: -8.46%. As for `CC(C)Cc1cc(C(=O)N2CCCC(CCC(=O)N(C)CCc3ccccn3)C2)no1` (centres undefined), the “growth rescue (activation)” value is inactive: 8.04%. Next, `CCC(C(=O)NCCC1=CCCCC1)c1ccccc1` (centres undefined): inactive: 12.3%; `CC(C)c1ccc(C2Sc3ccccc3NC3=C2C(=O)c2ccccc23)cc1` (centres undefined): inactive: -3.23%. As for `CC(C)C(=O)N1CCN(c2ccccc2NC(=S)NC(=O)c2cccs2)CC1`, the figure is inactive: -13.4%. `CCSc1nnc(NC(=O)c2ccc3ccccc3n2)s1`: the “growth rescue (activation)” value is inactive: 24.9%. As for `CN(C(=S)Nc1ccc(SC(F)F)cc1)c1ccc(O)cc1`, the figure is inactive: 14.5%; as for `CCOc1ccc(-n2c(SCC(=O)N3CCC(C(=O)O)CC3)nc3ccccc3c2=O)cc1`, inactive: 4.98%; as for `CC(C)(C)C(=O)N1CCN(c2nc3ccccc3o2)CC1`, inactive: 25%. Take `CCCc1nnc(SCC(=O)Nc2cccc(C(F)(F)F)c2)o1`: the “growth rescue (activation)” value was inactive: 24.6%.

With `Cc1ccc(NC(=O)CSc2nnc(-c3ccoc3C)n2CCCN(C)C)cc1Cl`, the “growth rescue (activation)” value is inactive: 7.52%.

For the compound `Cc1[nH]c2ccc(F)cc2c1CCN(Cc1cccnc1)C(=S)NC(C)(C)C`, the “growth rescue (activation)” value was inactive: -2.29%.

On to `COc1cc(C=NNC(=O)c2ccccc2-n2cccc2)ccc1O`, for which the “growth rescue (activation)” value is inactive: -7.42%.

With `Clc1ccsc1-c1ccnc(-n2cccc2)n1`, the “growth rescue (activation)” value is inactive: -5.39%.

For `C[C@]12CC[C@H](O)CC1=CCC1C2CC[C@@]2(C)C1CC[C@@H]2NC(=O)[C@@H](N)Cc1ccccc1` (some centres undefined), the “growth rescue (activation)” value was inactive: -1.32%. Take `COC(=O)c1cccc(CN2C(=O)C(C)Sc3cc(Cl)ccc32)c1` (centres undefined): the “growth rescue (activation)” value was inactive: 10.6%. As for `O=C(c1ccc(Oc2ccccc2)cc1)C1CCCN(C(=O)c2cnccn2)C1` (centres undefined), the figure is inactive: -3.73%. Next, `COc1cccc(NC(=O)CC2C(=O)NC3CCCCC3N2C(=O)c2ccccc2)c1` (centres undefined): inactive: 9.1%; `Cn1c2ccccc2c2ncn(Cc3ccc(F)cc3)c(=O)c21`: inactive: 19.3%. Next, `Cc1ccc2[nH]c3c(c2c1)CCCC3NC(=O)CCl` (centres undefined): inactive: 22.3%; `CC1=NN(c2cccc(Cl)c2)C(=O)C12CC(C)=C(C)CS2` (centres undefined): inactive: 17%. For the compound `CCCNC(=O)C1(C)CCN(Cc2cc(C)n(C)n2)C1` (centres undefined), the “growth rescue (activation)” value is inactive: 6.15%. Next, `COc1ccc(N2CCN(C(=O)c3ccc(S(=O)(=O)N4CCCCCC4)cc3)CC2)cc1`: inactive: 10.2%.

As to `COc1ccc(/C=C/C(=O)OCC(=O)N2CC(=O)Nc3ccccc32)cc1S(=O)(=O)N1CCOCC1`, the “growth rescue (activation)” value was inactive: 6.36%. Next, `CCOc1ccccc1-c1nnc(CS(=O)(=O)c2ccccc2)o1`: inactive: 2.02%. As for `O=C(Cn1cc(C(=O)C2CC2)c2ccccc21)Nc1ccc(F)cc1`, the figure is inactive: 12.6%; as for `Cc1ccc(CN2CCN(Cc3cnc(C)[nH]3)CC2CCO)cc1` (centres undefined), inactive: -13.3%.
